Sequences and labels used below:
B1: chr1:6525536:6525637:-|3pUTR|ENSG00000162408|msi1|FALSE|unique (ssRNA)
RNA: GGGAGUUCUACAGUCCGACGAUCACAGUUUGUGUGCCAUUAAAACAGAGAUUCCUCAGAAAGUUCUUCAGGGACCUGGUUAUUAGAAUCAGGAUAAAAAUAAGGAAACUGGGGCCAUUACAAUGUACCGAGAAGGAAGGAAGACAACAGAGGAUUGAGCAUCA
B2: ENSG00000153989:stop:overlap|stop_codon|ENSG00000153989|stop_codon|NA|stop_codon (ssRNA)
RNA: GGGAGUUCUACAGUCCGACGAUCAUGAGGACUUUUUCUCUGCCCUUCGUCAAUAUGCAGCCUGUGAACAGCGUCUGGGAAAGUAGUGGUCAUUGGUUGCAUAAUUUGAUUUGAGGCUUGUGGAGGAAAGGAACCAAGUGACUCCAACAGAGGAUUGAGCAUCA
B3: ENSG00000070961:be:win_451|CDS|ENSG00000070961|bound_else_gene|NA|bound_elsewhere_windowed (ssRNA)
RNA: GGGAGUUCUACAGUCCGACGAUCACUGGUUGGAUUGAAGGAGCUGCAAUCCUCUUGUCUGUAGUGUGUGUGGUGUUAGUAACAGCUUUCAAUGACUGGAGUAAGGAAAAACAGUUUAGAGGUUUGCAGAGCCGAAUUGAACAACAACAGAGGAUUGAGCAUCA
B4: chr1:157676480:157678709:-|three_prime_utr|ENSG00000160856|control|control|control (ssRNA)
RNA: GGGAGUUCUACAGUCCGACGAUCAAGCACUGUGUUAUUUUCACAGUGGAGACACGUGGCAAGGCAGGAGGGCCCUCAGCUCCUAGGGCUGUCGAAUAGAGGAGGAGAGAGAAAUGGUCUAGCCAGGGUUACAAGGGCACAAUCCAACAGAGGAUUGAGCAUCA
B5: chr7:2728618:2728646:-|3pUTR|ENSG00000146535|msi1_unk|total|mutant (ssRNA)
RNA: GGGAGUUCUACAGUCCGACGAUCUUUAAUUUCACUGUUAAUCCUUAUUGUCUUUUUUAUUAAGAUGUUGGAAAAGCAGGAGGCCGUUGUGCCUCAAUUAUUGCAAAAAUGUAACAAUAAAGUUCCUCAAAAUAAGAUCUGUUCCAACAGAGGAUUGAGCAUCA
B6: chrX:48578139:48578249:+|3pUTR|ENSG00000102317|msi1_unk|FALSE|overlapping (ssRNA)
RNA: GGGAGUUCUACAGUCCGACGAUCGUAUCAAGAACAUGAUUAUCCAGCGGUAUUUUCUAAUUCAGAUCAUCAAACUGAUUAUAUAGAAGAGUUGGCUUUAAAAUGUUUGCAAAUGUCUUUUUUUUUUUAAUACUGGAAGAAAAACAACAGAGGAUUGAGCAUCA
B7: chr4:68227913:68228072:-|CDS|ENSG00000185873|control|control|control (ssRNA)
RNA: GGGAGUUCUACAGUCCGACGAUCUGAUUCUGGUGGACCACUAGCUUACCCUGAUUCCAGAAAUAUCUGGCAUCUUGUUGGAAUAGUAAGCUGGGGUGAUGGAUGUGGUAAAAAGAAUAAGCCAGGUGUCUAUACUCGAGUGACCAACAGAGGAUUGAGCAUCA
B8: chr2:27433287:27433389:+|CDS|ENSG00000115216|unk|total|mutant (ssRNA)
RNA: GGGAGUUCUACAGUCCGACGAUCUUCCAGCAUGUCGGAGGGGGAGUCCCAGACAGUACUCCGCAGUGGCUCAGACCCAAAGGCCGAAUCCUCAUCUUCAGCUCCUGGCCUGACAUCAGUGUCACCUCCUGUGACCUCCACAACCAACAGAGGAUUGAGCAUCA
B9: chr22:38864602:38864703:-|3pUTR|ENSG00000183741|msi1|FALSE|bound_elsewhere (ssRNA)
RNA: GGGAGUUCUACAGUCCGACGAUCGCUGUGCUGCCAUGGGCCCCUCCCUCAGAAGCACGUUGGCAGGAGGCCGAUCAGAACCCUAGCGCCUUUGGUCCUAAGAAUGGGAGGCUGCCUUCCUUCCCAAUCUCCCUGCCAGGGCCCCAACAGAGGAUUGAGCAUCA
B10: chr4:2944067:2944171:-|CDS|ENSG00000087269|unk|FALSE|unique (ssRNA)
RNA: GGGAGUUCUACAGUCCGACGAUCGGCUUUGUCCCAGAGGUUUAUACCUGAGCUUAUUAAUUUUCUUCUUGGGAUUCUUUACAUAGCAACUCCAAACAAAGCAAGCCAAGGUGAGUUGAUUUGAGGGAGGUUCCUACAAAUAUGCAACAGAGGAUUGAGCAUCA
B11: chr1:13049810:13050369:-|CDS|ENSG00000274764|control|control|control (ssRNA)
RNA: GGGAGUUCUACAGUCCGACGAUCGCCCCGCGGGAGAGUUAUGGUGCUGAUGGUACUCUCUGCUGGAACAGAUUUGCUCAAAUUAGGGCUGAGCUGAUGAACAGAGUGAGGGACUUAAGGCACCCCAAGAGGAUCUUUUUCUGUCAACAGAGGAUUGAGCAUCA
B12: chr5:133955728:133955829:-|3pUTR|ENSG00000113583|msi1|FALSE|unique (ssRNA)
RNA: GGGAGUUCUACAGUCCGACGAUCUCAAUAUGUAAAUAUGUGAUUUGAACCAUGGUUGACUUACAAGUGUCACUACAGCUUUUUAGAAAACAUAGCCCUAAUAUAUGUUAAGCAGGACCCGGGUGAGCCAGUGGGCUUGCGCUUCAACAGAGGAUUGAGCAUCA
B13: chr12:111449306:111449407:+|3pUTR|ENSG00000111252|msi1|FALSE|unique (ssRNA)
RNA: GGGAGUUCUACAGUCCGACGAUCGCUGGCUUGGUGCCCUCCAAGCAUCUAAUGGCUUAUUAAAUUAUCCCACAAGUGGGUUUUAGGCUCCUUUUUUGAGCCAAAAUGGAAGCUGGGAAUCUGGUGCCAUAACUAAUGAGAAACCAACAGAGGAUUGAGCAUCA
B14: ENSG00000136451:be:win_4051|3pUTR|ENSG00000136451|bound_else_gene|NA|bound_elsewhere_windowed (ssRNA)
RNA: GGGAGUUCUACAGUCCGACGAUCGGUGGGCCACUGAAAAGGGGUACCGAAUAGGUUGUGUGAUGAAAUUCUGUGUCUUGGAACUGGAAUUGAGUUUCGAUGUUGAUGAACUGAUUCAACCAGGUGUUGAAGGCACGACAGCCACAACAGAGGAUUGAGCAUCA

The list shows a part of the results.

The experiment concerns the target MSI1 full-length (mouse, UniProt Q61474 1-362). Briefly: nsRBNS (natural sequence RNA bind-n-seq); RBNS binding buffer (assumed for nsRBNS): 25 mM Tris pH 7.5, 150 mM KCl, 3 mM MgCl2, 0.01% Triton X-100, 500 ug/ml BSA, 20 U/ml SUPERase-In, 4 C; UNK is unkempt and MSI1 is Musashi-1; names of the RNAs are library labels; protein concentration not given here; high values mean tight binding.
Sequence of UniProt Q61474 (Q61474 whole entry): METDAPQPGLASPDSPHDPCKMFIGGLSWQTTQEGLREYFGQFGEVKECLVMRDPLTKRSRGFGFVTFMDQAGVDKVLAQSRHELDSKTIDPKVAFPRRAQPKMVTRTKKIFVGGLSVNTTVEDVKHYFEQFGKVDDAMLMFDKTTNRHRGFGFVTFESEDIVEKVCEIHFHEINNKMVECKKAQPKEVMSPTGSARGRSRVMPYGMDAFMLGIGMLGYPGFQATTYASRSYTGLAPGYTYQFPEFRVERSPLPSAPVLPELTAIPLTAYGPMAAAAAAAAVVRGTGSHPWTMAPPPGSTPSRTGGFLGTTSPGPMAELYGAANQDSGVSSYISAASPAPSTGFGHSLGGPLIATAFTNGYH
For B1, the binding signal was 5.92 enrichment R.
The figure for B2 is 0.421 enrichment R.
The figure for B3 is 1.41 enrichment R; for B4 it is 0.827 enrichment R; for B5 it is 0.343 enrichment R.
With B6 the figure was 0.61 enrichment R.
For B7, the binding signal is 0.374 enrichment R.
The figure for B8 is 0.489 enrichment R; for B9 it is 0.571 enrichment R.
The figure for B10 is 0.634 enrichment R; for B11 it is 0.485 enrichment R; for B12 it is 2.68 enrichment R.
The figure for B13 is 0.423 enrichment R.
Regarding B14, the binding signal turned out to be 0.272 enrichment R.

(Values after publication PMC12136788.)
